Experimental data published in the supplement of paper PMC4723716.
Whole data set: some 3,600 compounds, median “viability index relative to DMSO control” near 0.81, cut for the lowest 2% near 0.13. The list shows a part of the results.

The compounds below were run on Plasmodium falciparum NF54 stage V gametocytes (assay: viability index relative to DMSO control (fraction); higher = less gametocyte killing). Settings: 1.25 µM, incubation time: 72 h.
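Also: 384-well serum-free SaLSSA: MitoTracker Red CMXRos staining with saponin lysis, high-content imaging, treated-well particle count divided by plate-mean count of DMSO wells.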

Structure (SMILES)	viability index
CCN(CC)CCCNC(=S)N(CCN(CC)CC)Cc1cc2ccc(C)c(C)c2[nH]c1=O	0.842
CCCOC(=O)C1=C(C)NC2=C(C(=O)CC(c3ccc(OC)c(OC)c3)C2)C1c1ccc([N+](=O)[O-])cc1 (centres undefined)	0.514
CC1CC(C)CN(c2ccc([N+](=O)[O-])cc2-c2nnn[nH]2)C1 (centres undefined)	0.824
COc1ccc(-c2nc(NC(=O)CS(=O)(=O)c3ccc(F)cc3)sc2C)cc1	0.587
CC(C)(C)c1ccc(C=CC(=O)NCc2ccco2)cc1	0.816
CCN(CC)S(=O)(=O)c1ccc(C(=O)c2c(C)c(C(=O)C(F)(F)F)c3ccccn23)cc1	0.871
O=C(Nc1ccccc1O)c1ccc(C(=O)N(C2CCCCC2)C2CCCCC2)cc1	0.825
CCOc1cccc2c(C)nc(NC(=N)N)nc12	0.83
Cc1ccc(NC(=O)C(C)Sc2nnc(-c3ccc(O)cc3)o2)cc1 (centres undefined)	0.753
N#Cc1cc(Oc2ccc(-c3cnc4ccccc4n3)cc2)nc2ccccc12	1.2
COc1ccc(-c2c[n+](Cc3ccc(Cl)cc3Cl)c3n2CCC3)cc1	0.755
CC(=O)Nc1cccc(NC(=O)C(F)(F)F)c1	0.906
CCN(CC)Cc1cc(Nc2ccnc3cc(Cl)ccc23)ccc1O	0.873
Cc1ccc(N2C3c4ccccc4N(S(=O)(=O)c4ccc(C)cc4)C2c2ccccc2N3S(=O)(=O)c2ccc(C)cc2)cc1	0.645
COc1ccc(Nc2nc(NN=Cc3cccc(Cl)c3)nc(Nc3ccc([N+](=O)[O-])cc3)n2)cc1	0.498
Cc1ccc(CN2C(=O)C(O)(CC(=O)c3ccccc3)c3ccccc32)cc1 (centres undefined)	0.914
Cc1cc2c(cc1C)-c1c(ssc1=Nc1cccc(C)c1C)C(C)(C)N2	0.77
CCOC(=O)c1ccc(NC(=O)c2ccc(S(=O)(=O)N3CC(C)CC(C)C3)cc2)cc1 (centres undefined)	1
CCOC(=O)CSc1nc2c(sc(=S)n2-c2ccc(Cl)c(C)c2)c(=O)n1-c1ccccc1OC	0.932
O=C(CSc1nc2ccccc2[nH]1)Nc1ccc(Cl)cc1Cl	0.71

Structure (SMILES)	viability index
CCc1c(C)c(C#N)c2nc3ccccc3n2c1NCc1ccco1	0.46
COc1cc(Br)c(/C=C2\Sc3ccccc3C2=O)cc1OC	0.837
CCCCNc1c2c(c(C#N)c3nc4ccccc4n13)CCC2	0.624
Cc1cccc(C)c1NC(=O)N1CCN(C2CCCCC2)CC1	1.07
CC(=O)N(C1=C(N2CCOCC2)C(=O)c2ccccc2C1=O)c1ccc(F)c(F)c1	0.0694
CCCCCCCn1c2c(c(=N)c3ccccc31)CCC2	0.477
CCCCCCCC(=O)N1CCN(CCN(Cc2ccc(F)cc2)C(=O)c2c(-c3c(F)cccc3Cl)noc2C)CC1	0.786
O=C1C=CC(=O)N1c1ccc(Sc2ccc(N3C(=O)C=CC3=O)cc2)cc1	0.868
COc1ccc2nc(C)cc(Nc3cccc(Cl)c3)c2c1	0.958
CCOC(=O)c1c(NC(=O)c2ccc(S(=O)(=O)N(C)c3ccccc3)cc2)sc2c1CCN(C(=O)OCC)C2	0.81
CCN1C(=O)N(CCC(C)C)C2(CCN(Cc3cc(Cl)ccc3O)CC2)C1=O	1.14
COc1cccc(NC(=O)c2ccc(NCCCN3CC(C)CC(C)C3)c([N+](=O)[O-])c2)c1 (centres undefined)	1.15
CN(C)CCN1CCN(c2ccnc3cc4ccccc4cc23)CC1	0.84
COc1ccc2[nH]c3c(=O)n(C)cnc3c2c1	0.735
CCN(CC)S(=O)(=O)c1ccc(-c2csc(Nc3ccc(C)c(C)c3)n2)cc1	0.427
COC(=O)c1ccc(N(C(=O)Cc2c[nH]c3ccccc23)C(C(=O)NC2CCCCC2)c2cccnc2)cc1 (centres undefined)	0.771
COc1ccccc1CNC(=O)CN1C(=O)c2cccnc2Oc2ccccc21	0.831
Oc1ccc(Cl)cc1C1CC(c2ccc(Cl)cc2)=NC(c2ccc(Cl)cc2)N1 (centres undefined)	1.06
OC(CCN1CCN(C(c2ccccc2)c2ccccc2)CC1)c1ccccc1 (centres undefined)	0.857
CC12CN3CC(C)(CN(C1)C3c1ccccc1)C2=O (centres undefined)	0.83

Structure (SMILES)	viability index
CCCn1cc(SCC(=O)NCc2ccco2)c2ccccc21	1.34
CCOc1ccc(NC(=O)c2ccc(C)o2)cc1	0.873
C(=NNc1nc2ccccc2[nH]1)c1c[nH]c2ccccc12	0.558
COc1ccc(C2=C(Nc3ccc4oc5ccccc5c4c3)c3ccccc3C2=O)cc1	0.672
CC(C)CN1C(=O)c2ccccc2C(C(=O)Nc2cccc(Cl)c2)C1c1cccs1 (centres undefined)	0.209
Cc1cc(C)cc(NC(=O)CCCn2c3ccccc3c(=O)c3cc(C)ccc32)c1	0.788
N#Cc1c2c(c(N3CCN(c4ccccn4)CC3)n3c1nc1ccccc13)CCC2	1.16
N#CN=C(N)c1sc(Nc2ccccc2)nc1N	0.721
COC(=O)C1N(C(=O)OC)c2ccc([N+](=O)[O-])cc2S1(=O)=O (centres undefined)	0.625
CC(Oc1cccc(Cl)c1)C(=O)N1CCc2ccccc21 (centres undefined)	0.845
Cc1cnc(Sc2ccccn2)c([N+](=O)[O-])c1	1.07
CC1=C(CCN(CCCN(C)C)CCCN(C)C)C(C)(C)CCC1	0.405
O=C1C2=C(Nc3ccccc3SC2c2ccc(OCc3ccccc3)cc2)c2ccccc21 (centres undefined)	0.653
Cc1ncc([N+](=O)[O-])n1CCOC(=O)c1c(NC(=O)c2ccccc2)sc2c1CCCC2	0.863
CCc1cc2c(Sc3nnc(N)s3)ncnc2s1	0.777
FC(F)(F)c1cccc(NC(=S)N2CCSC2c2ccc(Br)cc2)c1 (centres undefined)	0.398
CCN(CC)CCCNCC(=O)N1c2ccccc2Sc2ccccc21	0.87
CCCCCNC(=O)C1CSC(c2ccoc2)N1C(=O)c1ccccc1Cl (centres undefined)	0.696
O=C(Nc1ccc(-c2cn3ccsc3n2)cc1)c1ccc(S(=O)(=O)N2CCCCCC2)cc1	0.804
